According to patent publication US20260297081A1, “COMPOUNDS AND METHODS OF TREATING CANCERS” (Cullgen Inc., priority 2023, published 2026):
At least one read-out could not be matched to a standard name with certainty.

Tested on: CyclinD1 (CCND1)
Assay: Cyclin D1 (CCND1) percentage degradation in Calu-1 cells (Table 6)
Assay type: cell-based
Settings: 16 hours

Structure (SMILES)	CyclinD1 Degradation (40 nM)	CyclinD1 Degradation (200 nM)
CNc1ccc(C(=O)Nc2cc(C)n(C)n2)c(NC2CC(CNC(=O)CN3CCN(c4ccc(Nc5ncc6c(C)c(C(C)=O)c(=O)n(C7CCCC7)c6n5)nc4)CC3)C2)n1 (stereo not drawn) [CPD-165, 2-((3-((2-(4-(6-((6-acetyl-8-cyclopentyl-5-methyl-7-oxo-7,8-dihydropyrido[2,3-d]pyrimidin-2-yl)amino)pyridin-3-yl)piperazin-1-yl)acetamido)methyl)cyclobutyl)amino)-N-(1,5-dimethyl-1H-pyrazol-3-yl)-6-(methylamino)nicotinamide]	A (degradation activity >80%)	A (degradation activity >80%)
CNc1ccc(C(=O)Nc2ccc(N(C)C)nn2)c(NC2CC(CNC(=O)N3CCN(c4ccc(Nc5ncc6c(C)c(C(C)=O)c(=O)n(C7CCCC7)c6n5)nc4)CC3)C2)n1 (stereo not drawn) [CPD-166, 4-(6-((6-acetyl-8-cyclopentyl-5-methyl-7-oxo-7,8-dihydropyrido[2,3-d]pyrimidin-2-yl)amino)pyridin-3-yl)-N-((3-((3-((6-(dimethylamino)pyridazin-3-yl)carbamoyl)-6-(methylamino)pyridin-2-yl)amino)cyclobutyl)methyl)piperazine-1-carboxamide]	A (degradation activity >80%)	A (degradation activity >80%)
CNc1ccc(C(=O)Nc2ccc(N(C)C)nn2)c(NC2CC(CNC(=O)C(C)(C)N3CCN(c4ccc(Nc5ncc6c(C)c(C(C)=O)c(=O)n(C7CCCC7)c6n5)nc4)CC3)C2)n1 (stereo not drawn) [CPD-167, 2-((3-((2-(4-(6-((6-acetyl-8-cyclopentyl-5-methyl-7-oxo-7,8-dihydropyrido[2,3-d]pyrimidin-2-yl)amino)pyridin-3-yl)piperazin-1-yl)-2-methylpropanamido)methyl)cyclobutyl)amino)-N-(6-(dimethylamino)pyridazin-3-yl)-6-(methylamino)nicotinamide]	A (degradation activity >80%)	A (degradation activity >80%)
CNc1ccc(C(=O)Nc2ccc(N(C)C)nn2)c(NC2CC(OCC(=O)N3CCN(c4ccc(Nc5ncc6c(C)c(C(C)=O)c(=O)n(C7CCCC7)c6n5)nc4)CC3)C2)n1 (stereo not drawn) [CPD-168, 2-((3-(2-(4-(6-((6-acetyl-8-cyclopentyl-5-methyl-7-oxo-7,8-dihydropyrido[2,3-d]pyrimidin-2-yl)amino)pyridin-3-yl)piperazin-1-yl)-2-oxoethoxy)cyclobutyl)amino)-N-(6-(dimethylamino)pyridazin-3-yl)-6-(methylamino)nicotinamide]	A (degradation activity >80%)	A (degradation activity >80%)
CNc1ccc(C(=O)Nc2ccc(N(C)C)nn2)c(NC[C@H]2CC[C@H](CNC(=O)N3CCN(c4ccc(Nc5ncc6c(C)c(C(C)=O)c(=O)n(C7CCCC7)c6n5)nc4)CC3)CC2)n1 [CPD-169, 4-(6-((6-acetyl-8-cyclopentyl-5-methyl-7-oxo-7,8-dihydropyrido[2,3-d]pyrimidin-2-yl)amino)pyridin-3-yl)-N-((trans-4-(((3-((6-(dimethylamino)pyridazin-3-yl)carbamoyl)-6-(methylamino)pyridin-2-yl)amino)methyl)cyclohexyl)menthyl)piperazine-1-carboxamide]	D (degradation activity <30%)	B (50%< degradation activity <80%)
CNc1ccc(C(=O)Nc2cccc(C)n2)c(NC2CC(CNC(=O)CN3CCN(c4ccc(Nc5ncc6c(C)c(C(C)=O)c(=O)n(C7CCCC7)c6n5)nc4)CC3)C2)n1 (stereo not drawn) [CPD-170, 2-((3-((2-(4-(6-((6-acetyl-8-cyclopentyl-5-methyl-7-oxo-7,8-dihydropyrido[2,3-d]pyrimidin-2-yl)amino)pyridin-3-yl)piperazin-1-yl)acetamido)methyl)cyclobutyl)amino)-6-(methylamino)-N-(6-methylpyridin-2-yl)nicotinamide]	A (degradation activity >80%)	A (degradation activity >80%)
CNc1ccc(C(=O)Nc2cccc(C)n2)c(NC2CC3(C2)CN(C(=O)C2(CN4CCN(c5ccc(Nc6ncc7c(C)c(C(C)=O)c(=O)n(C8CCCC8)c7n6)nc5)CC4)CC2)C3)n1 [CPD-171, 2-((2-(1-((4-(6-((6-acetyl-8-cyclopentyl-5-methyl-7-oxo-7,8-dihydropyrido[2,3-d]pyrimidin-2-yl)amino)pyridin-3-yl)piperazin-1-yl)methyl)cyclopropane-1-carbonyl)-2-azaspiro[3.3]heptan-6-yl)amino)-6-(methylamino)-N-(6-methylpyridin-2-yl)nicotinamide]	A (degradation activity >80%)	A (degradation activity >80%)
CNc1ccc(C(=O)Nc2ccc(N(C)C)nn2)c(NC2CC(CNC(=O)C3(CN4CCN(c5ccc(Nc6ncc7c(C)c(C(C)=O)c(=O)n(C8CCCC8)c7n6)nc5)CC4)CC3)C2)n1 (stereo not drawn) [CPD-172, 2-((3-((1-((4-(6-((6-acetyl-8-cyclopentyl-5-methyl-7-oxo-7,8-dihydropyrido[2,3-d]pyrimidin-2-yl)amino)pyridin-3-yl)piperazin-1-yl)methyl)cyclopropane-1-carboxamido)methyl)cyclobutyl)amino)-N-(6-(dimethylamino)pyridazin-3-yl)-6-(methylamino)nicotinamide]	A (degradation activity >80%)	A (degradation activity >80%)
CNc1ccc(C(=O)Nc2cccc(C3CC3)n2)c(NC2CC3(C2)CN(C(=O)C2(CN4CCN(c5ccc(Nc6ncc7c(C)c(C(C)=O)c(=O)n(C8CCCC8)c7n6)nc5)CC4)CC2)C3)n1 [CPD-173, 2-((2-(1-((4-(6-((6-acetyl-8-cyclopentyl-5-methyl-7-oxo-7,8-dihydropyrido[2,3-d]pyrimidin-2-yl)amino)pyridin-3-yl)piperazin-1-yl)methyl)cyclopropane-1-carbonyl)-2-azaspiro[3.3]heptan-6-yl)amino)-N-(6-cyclopropylpyridin-2-yl)-6-(methylamino)nicotinamide]	A (degradation activity >80%)	A (degradation activity >80%)
CNc1ccc(C(=O)Nc2ccc(N(C)C)nn2)c(NC2CC3(CC(NC(=O)C(C)(C)N4CCN(c5ccc(Nc6ncc7c(C)c(C(C)=O)c(=O)n(C8CCCC8)c7n6)nc5)CC4)C3)C2)n1 (stereo not drawn) [CPD-174, 2-((6-(2-(4-(6-((6-acetyl-8-cyclopentyl-5-methyl-7-oxo-7,8-dihydropyrido[2,3-d]pyrimidin-2-yl)amino)pyridin-3-yl)piperazin-1-yl)-2-methylpropanamido)spiro[3.3]heptan-2-yl)amino)-N-(6-(dimethylamino)pyridazin-3-yl)-6-(methylamino)nicotinamide]	A (degradation activity >80%)	A (degradation activity >80%)
CNc1ccc(C(=O)Nc2cccc(C3CC3)n2)c(NC2CC3(C2)CN(C(=O)C(C)(C)N2CCN(c4ccc(Nc5ncc6c(C)c(C(C)=O)c(=O)n(C7CCCC7)c6n5)nc4)CC2)C3)n1 [CPD-175, 2-((2-(2-(4-(6-((6-acetyl-8-cyclopentyl-5-methyl-7-oxo-7,8-dihydropyrido[2,3-d]pyrimidin-2-yl)amino)pyridin-3-yl)piperazin-1-yl)-2-methylpropanoyl)-2-azaspiro[3.3]heptan-6-yl)amino)-N-(6-cyclopropylpyridin-2-yl)-6-(methylamino)nicotinamide]	D (degradation activity <30%)	A (degradation activity >80%)
CNc1ccc(C(=O)Nc2cccc(C)n2)c(NC2CC3(C2)CN(C(=O)C(C)(C)N2CCN(c4ccc(Nc5ncc6c(C)c(C(C)=O)c(=O)n(C7CCCC7)c6n5)nc4)CC2)C3)n1 [CPD-176, 2-((2-(2-(4-(6-((6-acetyl-8-cyclopentyl-5-methyl-7-oxo-7,8-dihydropyrido[2,3-di]pyrimidin-2-yl)amino)pyridin-3-yl)piperazin-1-yl)-2-methylpropanoyl)-2-azaspiro[3.3]heptan-6-yl)amino)-6-(methylamino)-N-(6-methylpyridin-2-yl)nicotinamide]	D (degradation activity <30%)	B (50%< degradation activity <80%)
CNc1ccc(C(=O)Nc2ccc(N(C)C)c(C3CC3)n2)c(NC2CC3(CC(NC(=O)CN4CCN(c5ccc(Nc6ncc7c(C)c(C(C)=O)c(=O)n(C8CCCC8)c7n6)nc5)CC4)C3)C2)n1 (stereo not drawn) [CPD-177, 2-((6-(2-(4-(6-((6-acetyl-8-cyclopentyl-5-methyl-7-oxo-7,8-dihydropyrido[2,3-d]pyrimidin-2-yl)amino)pyridin-3-yl)piperazin-1-yl)acetamido)spiro[3.3]heptan-2-yl)amino)-N-(6-cyclopropyl-5-(dimethylamino)pyridin-2-yl)-6-(methylamino)nicotinamide]	D (degradation activity <30%)	B (50%< degradation activity <80%)
CNc1ccc(C(=O)Nc2ccc(N(C)C)nn2)c(NC2CC(OCCC(=O)N3CCN(c4ccc(Nc5ncc6c(C)c(C(C)=O)c(=O)n(C7CCCC7)c6n5)nc4)CC3)C2)n1 (stereo not drawn) [CPD-178, 2-((3-(3-(4-(6-((6-acetyl-8-cyclopentyl-5-methyl-7-oxo-7,8-dihydropyrido[2,3-d]pyrimidin-2-yl)amino)pyridin-3-yl)piperazin-1-yl)-3-oxopropoxy)cyclobutyl)amino)-N-(6-(dimethylamino)pyridazin-3-yl)-6-(methylamino)nicotinamide]	A (degradation activity >80%)	A (degradation activity >80%)
CNc1ccc(C(=O)Nc2cn(C)c(C)n2)c(NC2CC3(CC(NC(=O)CN4CCN(c5ccc(Nc6ncc7c(C)c(C(C)=O)c(=O)n(C8CCCC8)c7n6)nc5)CC4)C3)C2)n1 (stereo not drawn) [CPD-179, 2-((6-(2-(4-(6-((6-acetyl-8-cyclopentyl-5-methyl-7-oxo-7,8-dihydropyrido[2,3-d]pyrimidin-2-yl)amino)pyridin-3-yl)piperazin-1-yl)acetamido)spiro[3.3]heptan-2-yl)amino)-N-(1,2-dimethyl-1H-imidazol-4-yl)-6-(methylamino)nicotinamide]	A (degradation activity >80%)	A (degradation activity >80%)
